Measurements as given in publication PMC8060278 (Nature Communications, 2021).

B1: A1-CAIM (recombinant VWF fragment […]) (domain or fragment)
chain: not shown
notes: also called AIM-less protein
B2: AIM-A1 H1268D (domain or fragment)
chain: not shown
notes: Site-directed mutagenesis is described under the BioSpy constructs (BioTag N-terminal, 10His-SpyTag C-terminal, Expi293F-BirA); source: baby hamster kidney cells as described (said of type 2B mutants), purified
B3: AIM-A1 R1341Q (domain or fragment)
chain: not shown
notes: as for B2
B4: NAIM-A1 (VWF […]) (domain or fragment)
chain: not shown
notes: a BioSpy form also exists for the optical trap; also called AIM-less protein; source: baby hamster kidney cells as described (said of most recombinant VWF fragments), purified
B5: tAIM-A1 (VWF […]) (domain or fragment)
chain: not shown
notes: source: baby hamster kidney cells as described (said of most recombinant VWF fragments), purified

Biological target: T1, recombinant ligand-binding domain (LBD) of GPIbα (residues His1-Arg290) (human, UniProt P07359 17-306, biotin on the BioTag (…))
T1 construct: also called GPIbα-LBD; biotinylated LBD; not shown: BioTag, N-terminal, kept
T1 sequence (P07359 17-306): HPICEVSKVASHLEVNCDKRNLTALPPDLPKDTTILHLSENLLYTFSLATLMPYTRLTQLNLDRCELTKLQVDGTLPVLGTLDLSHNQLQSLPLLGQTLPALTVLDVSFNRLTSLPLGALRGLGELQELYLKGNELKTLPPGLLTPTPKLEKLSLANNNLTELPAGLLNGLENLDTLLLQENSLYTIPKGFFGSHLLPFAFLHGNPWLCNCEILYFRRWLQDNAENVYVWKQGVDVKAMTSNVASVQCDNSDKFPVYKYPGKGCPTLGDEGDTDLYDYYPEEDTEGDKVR
Assay: BLI; biotinylated LBD loaded on streptavidin sensors (15 µg/mL); VWF fragments serially diluted from 1 μM to 15.6 nM; 23 °C, ForteBio kinetics buffer; heterogeneous-ligand global fit and steady-state hyperbola, apparent KD
Conditions: both partners purified

Binder | binding result
B1 | binds
B2 | binds
B3 | binds
B4 | binds
B5 | binds
